Measurements published in the supplement of paper PMC4604168 (melanoma cell lines).
This is one part of the list. Most values come without repeats; read them as rough.

Legend:
Assay in all cases: cell count relative to DMSO control; melanoma cells; higher = more viable cells
Settings in all cases: library dose: low library concentration; 72 h
MZ2-MEL = tested on: MZ2-MEL
MeWo = tested on: MeWo
RPMI7951 = tested on: RPMI7951
RVH-421 = tested on: RVH-421
SkMel28 = tested on: SkMel28
SkMel30 = tested on: SkMel30
SkMel5 = tested on: SkMel5
UACC257 = tested on: UACC257
UACC62 = tested on: UACC62
WM115 = tested on: WM115
WM1716 = tested on: WM1716
WM1745 = tested on: WM1745
WM3526 = tested on: WM3526
WM3619 = tested on: WM3619
WM451Lu = tested on: WM451Lu
SkMel2 = tested on: SkMel2
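Note: cell number obtained by counting DAPI-stained nuclei in high-throughput microscope images with image analysis software, screen run in 1,536-well plates.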

SMILES	cell count (MZ2-MEL)	cell count (MeWo)	cell count (RPMI7951)	cell count (RVH-421)	cell count (SkMel28)	cell count (SkMel30)	cell count (SkMel5)	cell count (UACC257)	cell count (UACC62)	cell count (WM115)	cell count (WM1716)	cell count (WM1745)	cell count (WM3526)	cell count (WM3619)	cell count (WM451Lu)	cell count (SkMel2)
Cc1nc(Nc2ncc(C(=O)Nc3c(C)cccc3Cl)s2)cc(N2CCN(CCO)CC2)n1 [dasatanib] + Cc1cc(SCc2sc(-c3ccc(C(F)(F)F)c(F)c3)nc2C)ccc1OCC(=O)O [GW0742] (first compound 0.004 µM, partner dose 2 µM)	72.8%	105%	56.8%	81.7%	74.2%	105%	83.7%	64.6%	90.7%	65%	60.6%	60.5%	102%	88.4%	61.3%	–
Cc1cc(Nc2cc(N3CCN(C)CC3)nc(Sc3ccc(NC(=O)C4CC4)cc3)n2)n[nH]1 [Tozasertib] + O=C(Oc1ccc([N+](=O)[O-])cc1)N1CCC(C(O)(c2ccc3c(c2)OCO3)c2ccc3c(c2)OCO3)CC1 [JZL184] (first compound 0.006 µM, partner dose 1 µM)	103%	90.2%	100%	94.9%	90.5%	86.8%	94.2%	96.7%	84.2%	88%	82.7%	83.3%	80.4%	107%	90.3%	97.3%
COCC[n+]1c2c(n(Cc3cnccn3)c1C)C(=O)c1ccccc1C2=O + Cc1cc(SCc2sc(-c3ccc(C(F)(F)F)c(F)c3)nc2C)ccc1OCC(=O)O [GW0742] (first compound 0.0004 µM, partner dose 2 µM)	54.2%	76%	95.4%	109%	99.4%	100%	72.9%	107%	91%	104%	94.8%	111%	98.9%	116%	62.8%	–
CC(C)C[C@H](NC(=O)[C@H](Cc1ccccc1)NC(=O)c1cnccn1)B(O)O [Bortezomib] + C[As](C)SC[C@H](NC(=O)CC[C@H](N)C(=O)O)C(=O)NCC(=O)O [Darinaparsin] (first compound 0.001 µM, partner dose 0.4 µM)	58.1%	75.7%	78.5%	48.3%	113%	72.2%	–	–	77%	113%	27.3%	82.6%	90.7%	38.2%	120%	104%
COc1cc2ncnc(Nc3ccc(Oc4ccccc4)cc3)c2cc1OC + O=C(Oc1ccc([N+](=O)[O-])cc1)N1CCC(C(O)(c2ccc3c(c2)OCO3)c2ccc3c(c2)OCO3)CC1 [JZL184] (first compound 2 µM, partner dose 1 µM)	90.3%	92.1%	137%	132%	80%	48%	94.6%	101%	94.3%	107%	96.2%	94.7%	49.5%	102%	96.5%	–
C=CCn1c(=O)c2cnc(Nc3ccc(N4CCN(C)CC4)cc3)nc2n1-c1cccc(C(C)(C)O)n1 + O=C(Oc1ccc([N+](=O)[O-])cc1)N1CCC(C(O)(c2ccc3c(c2)OCO3)c2ccc3c(c2)OCO3)CC1 [JZL184] (first compound 0.02 µM, partner dose 1 µM)	96.2%	106%	76.7%	88.7%	89.9%	89.2%	70.2%	88.7%	68.6%	89.5%	44.8%	79.2%	80.4%	42.7%	113%	–
Cc1cc(Nc2cc(N3CCN(C)CC3)nc(Sc3ccc(NC(=O)C4CC4)cc3)n2)n[nH]1 [Tozasertib] + C/C(O)=C(\C#N)C(=O)Nc1cc(Br)ccc1Br [LFM-A13] (first compound 0.006 µM, partner dose 2 µM)	102%	78.7%	80.7%	110%	75.7%	78.4%	92.6%	79.6%	79.1%	75.4%	92.8%	90.3%	82.8%	82.8%	87.9%	98.4%
CC(C)C[C@H](NC(=O)[C@H](Cc1ccccc1)NC(=O)c1cnccn1)B(O)O [Bortezomib] + O=C(Oc1ccc([N+](=O)[O-])cc1)N1CCC(C(O)(c2ccc3c(c2)OCO3)c2ccc3c(c2)OCO3)CC1 [JZL184] (first compound 0.001 µM, partner dose 1 µM)	83%	69.3%	66.5%	52.8%	79.5%	50.7%	80.5%	40.4%	60.3%	102%	19.6%	19.9%	63.9%	2.76%	77.8%	97.8%
Cc1cc(Nc2cc(N3CCN(C)CC3)nc(Sc3ccc(NC(=O)C4CC4)cc3)n2)n[nH]1 [Tozasertib] + C[As](C)SC[C@H](NC(=O)CC[C@H](N)C(=O)O)C(=O)NCC(=O)O [Darinaparsin] (first compound 0.006 µM, partner dose 0.4 µM)	95.6%	82.6%	110%	93.9%	88.1%	84.9%	–	–	82.1%	99.3%	86.8%	83.2%	98.9%	87.8%	111%	93.8%
C#Cc1cccc(Nc2ncnc3cc(OCCOC)c(OCCOC)cc23)c1 [erlotinib] + C[As](C)SC[C@H](NC(=O)CC[C@H](N)C(=O)O)C(=O)NCC(=O)O [Darinaparsin] (first compound 0.8 µM, partner dose 0.4 µM)	89.6%	78.8%	100%	92.5%	81.4%	82.9%	–	–	84.6%	90.7%	95.1%	84.9%	91.9%	89.3%	95.4%	97.6%
Cc1cc([N+](=O)[O-])ccc1NS(=O)(=O)c1cc(Cl)ccc1Cl + O=C(Oc1ccc([N+](=O)[O-])cc1)N1CCC(C(O)(c2ccc3c(c2)OCO3)c2ccc3c(c2)OCO3)CC1 [JZL184] (first compound 1 µM, partner dose 1 µM)	95.7%	92.2%	102%	5.58%	94.2%	95.3%	71.5%	72.2%	91.4%	92.8%	85.2%	88.9%	105%	102%	94.4%	–
Oc1nc(-c2ccc(C(F)(F)F)cc2)nc2c1CSCC2 + O=C(Oc1ccc([N+](=O)[O-])cc1)N1CCC(C(O)(c2ccc3c(c2)OCO3)c2ccc3c(c2)OCO3)CC1 [JZL184] (first compound 2 µM, partner dose 1 µM)	101%	110%	94.4%	77.1%	87.2%	97.7%	88.4%	89.1%	102%	108%	69.7%	70.4%	90.2%	95.1%	114%	–
C[C@@H]1CCN(C(=O)CC#N)C[C@@H]1N(C)c1ncnc2[nH]ccc12 + C/C(O)=C(\C#N)C(=O)Nc1cc(Br)ccc1Br [LFM-A13] (first compound 1 µM, partner dose 2 µM)	102%	103%	83.6%	84.1%	88%	97.5%	90.8%	92.4%	90.8%	97.6%	94.8%	88.5%	101%	95.2%	116%	–
O=C1NC(=O)/C(=C/c2ccc(-c3ccc(F)cc3O)o2)S1 + O=C(Oc1ccc([N+](=O)[O-])cc1)N1CCC(C(O)(c2ccc3c(c2)OCO3)c2ccc3c(c2)OCO3)CC1 [JZL184] (first compound 1 µM, partner dose 1 µM)	104%	89.3%	136%	90.7%	86.6%	83.4%	95.5%	90.4%	106%	102%	93.2%	101%	95.9%	123%	114%	–
c1cc(-c2cnn3cc(-c4ccc(OCCN5CCCCC5)cc4)cnc23)ccn1 [Dorsomorphin] + O=C(Oc1ccc([N+](=O)[O-])cc1)N1CCC(C(O)(c2ccc3c(c2)OCO3)c2ccc3c(c2)OCO3)CC1 [JZL184] (first compound 0.4 µM, partner dose 1 µM)	97.8%	96.3%	95.1%	96.3%	96.5%	104%	81.5%	116%	98.1%	100%	124%	92.5%	90.3%	104%	91.4%	–
Nc1ccn([C@@H]2O[C@H](CO)[C@@H](O)C2(F)F)c(=O)n1 [gemcitabine] + C[As](C)SC[C@H](NC(=O)CC[C@H](N)C(=O)O)C(=O)NCC(=O)O [Darinaparsin] (first compound 0.0004 µM, partner dose 0.4 µM)	90.2%	85.7%	81.6%	95.2%	93.2%	108%	–	–	80.8%	100%	94.7%	68.2%	97%	71.8%	95.8%	106%
CC(C)C[C@H](NC(=O)[C@H](Cc1ccccc1)NC(=O)c1cnccn1)B(O)O [Bortezomib] + N.N.[Cl][Pt][Cl] [cisplatin] (first compound 0.001 µM, partner dose 1.6 µM)	68.9%	89%	70.7%	73%	105%	108%	–	–	70.2%	107%	37.8%	77.5%	93.7%	26.2%	54.3%	84.4%
Nc1ccn([C@@H]2O[C@H](CO)[C@@H](O)C2(F)F)c(=O)n1 [gemcitabine] + C/C(O)=C(\C#N)C(=O)Nc1cc(Br)ccc1Br [LFM-A13] (first compound 0.0004 µM, partner dose 2 µM)	97.6%	95.7%	82.9%	102%	95%	95%	95.3%	119%	88.4%	98%	86.9%	68.7%	85.6%	69.7%	90.9%	106%
Clc1ccc(Nc2nnc(Cc3ccncc3)c3ccccc23)cc1 [vatalanib] + C[As](C)SC[C@H](NC(=O)CC[C@H](N)C(=O)O)C(=O)NCC(=O)O [Darinaparsin] (first compound 2 µM, partner dose 0.4 µM)	91.3%	74.4%	107%	109%	85.1%	124%	–	–	86.2%	97.3%	97.3%	88.5%	83%	69.6%	82.2%	95.1%
